{"source": "PubChem BioAssay AID624418", "about": "(National Center for Advancing Translational Sciences (NCATS), 2012)", "note": "Screen size: about 410,000 compounds; about 530 (0.13%) were called active. Inconclusive means that the source gave no clear call. Such entries were picked first, then a sample of the others. Calls come from the whole dose curve; as a rule, active = well fitted inhibition curve with a large enough effect; inconclusive = small, poorly fitted or top-dose-only effect, or another doubt; inactive = no such curve, though single readings can be large or run the other way. Potencies beside an inconclusive call are fits to weak or partial responses and may not hold up. % is set by controls: 0 for no effect and ±100 for the full control effect; potency is the fitted concentration of half-maximal effect."}
{"assay": "qHTS of GLP-1 Receptor Inverse Agonists: Cytotox Screen", "details": "HEK293 cAMP-luciferase reporter cells, luminescence, 24 h; activity change, negative = inhibition: at 38.3 µM (top of the series) unless noted", "outline": "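Compound-treated cells are incubated 24 hr at 37 deg C under 5% CO2 after a 12 hour attachment period, then luciferase detection reagent is added and luminescence is measured following 12 min at room temperature; lowered signal indicates toxicity.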"}
{"smiles": "CN(C)CCCNc1cc(-c2ccccc2)nc2cc(-c3cccc(F)c3)nn12", "Potency": "inconclusive: 28.2 µM [inhibitor, single point]"}
{"smiles": "COc1ccc(CNC(=O)C2=CC(c3ccc(C)cc3)=NS(=O)(=O)N2C)cc1", "Potency": "inconclusive: 2.82 µM [inhibitor, partial curve, poor fit]"}
{"smiles": "Cc1cnc(C(=O)OCC(=O)NCc2ccc(Cl)cc2)cn1", "activity change, negative = inhibition": "inactive: -0.266%"}
{"smiles": "O=C(Cc1ccccc1)Nc1cccc(-c2nc3ncccc3o2)c1", "Potency": "inconclusive: 11.2 µM [inhibitor, partial curve, poor fit]"}
{"smiles": "Cc1nc2ccc(S(=O)(=O)CCC(=O)Nc3ccc(C(C)C)cc3)cc2s1", "activity change, negative = inhibition": "inactive: 0.858%"}
{"smiles": "CCC1CCCCN1CCCNC(=O)c1cn(CC)c2ccc(S(=O)(=O)N(C)C3CCCCC3)cc2c1=O", "note": "(stereo not drawn)", "Potency": "inconclusive: 22.4 µM [inhibitor, single point]"}
{"smiles": "Cc1cc(C)cc(Cn2cc(CN3CC(N4CCSCC4)CS3(=O)=O)nn2)c1", "note": "(stereo not drawn)", "activity change, negative = inhibition": "inactive: 1.06%"}
{"smiles": "O=C1C=C(c2ccccc2)C[C@H](c2cccs2)[C@H]1n1nnc([N+](=O)[O-])n1", "Potency": "inconclusive: 7.94 µM [inhibitor, partial curve, poor fit]"}
{"smiles": "CN(C)CC1CCC/C(=C\\c2ccc(OC(=O)c3ccc(Cl)cc3)cc2)C1=O", "note": "(stereo not drawn)", "Potency": "inconclusive: 8.91 µM [inhibitor, partial curve]"}
{"smiles": "CCOC(=O)c1cccc(NC(=S)NC(=O)c2cccnc2)c1", "Potency": "inconclusive: 28.2 µM [inhibitor, single point]"}
{"smiles": "Cc1cc(-c2cc(-c3ccc(Cl)cc3)on2)nc(NCC2CC2)n1", "activity change, negative = inhibition": "inactive: -25.7%"}
{"smiles": "Cc1ccc(-n2[nH]c(C)c(/C=N/Nc3ccc([N+](=O)[O-])cc3[N+](=O)[O-])c2=O)cc1C", "Potency": "inconclusive: 11.2 µM [inhibitor, single point]"}
{"smiles": "Cc1cc(C)c2sc(N(CCCN(C)C)C(=O)CN3C(=O)c4ccccc4C3=O)nc2c1", "Potency": "inconclusive: 28.2 µM [inhibitor, single point]"}
{"smiles": "Cc1ccc(CN2CCN(CCCc3ccccc3)CC2CCO)cc1", "note": "(stereo not drawn)", "activity change, negative = inhibition": "inactive: 5.5%"}
{"smiles": "Cc1oc(-c2ccccc2F)nc1CS(=O)(=O)CC(=O)N1CCN(c2ccc(Cl)cc2)CC1", "activity change, negative = inhibition": "inactive: -17.8%"}
{"smiles": "C1CCC(Nc2nc3nonc3nc2N2CCSCC2)C1", "activity change, negative = inhibition": "inactive: 4.67%"}
{"smiles": "COc1ccc(CCNC(=O)Cn2nnc(C(=O)Nc3ccc(Br)cc3)c2N)cc1OC", "Potency": "inconclusive: 28.2 µM [inhibitor, single point]"}
{"smiles": "Fc1ccc(CCNC(=S)Nc2ccc(F)cc2)cc1", "Potency": "inconclusive: 28.2 µM [inhibitor, single point]"}
{"smiles": "COc1ccc(C2C(C#N)C(C#N)N3CCCN23)cc1", "note": "(stereo not drawn)", "activity change, negative = inhibition": "inactive: 14.3%"}
{"smiles": "Cc1ccc(NC(=S)NCc2ccccn2)cc1", "Potency": "inconclusive: 28.2 µM [inhibitor, single point]"}
{"smiles": "N#Cc1ccccc1Sc1ccccc1C(=O)OCC(N)=O", "activity change, negative = inhibition": "inactive: 9.8%"}
{"smiles": "CCn1c(SCC(=O)Nc2ccccc2)nc2c([nH]c3ccccc32)c1=O", "activity change, negative = inhibition": "inactive: -7.16%"}
{"smiles": "Cc1cc(F)ccc1N1CCC(N2CCN(CCC(C)C)C(CCO)C2)CC1", "note": "(stereo not drawn)", "Potency": "inconclusive: 28.2 µM [inhibitor, single point]"}
{"smiles": "O=C1NC(=S)NC1=Cc1ccccc1O", "activity change, negative = inhibition": "inactive: -12.3%"}
{"smiles": "CCCOc1ccc(-c2nc(C#N)c(N3CCc4ccccc4C3)o2)cc1", "activity change, negative = inhibition": "inactive: 17.1%"}
{"smiles": "O=C(CCl)Nc1ccc(Oc2cnc3ccccc3n2)cc1", "Potency": "inconclusive: 7.08 µM [inhibitor, partial curve, poor fit]"}
{"smiles": "CCC1CCCCN1C(=S)NC(=O)c1ccco1", "note": "(stereo not drawn)", "Potency": "inconclusive: 11.2 µM [inhibitor, partial curve, poor fit]"}
{"smiles": "O=C(COC(=O)c1cccnc1SCC(=O)NCc1ccccc1)NCc1ccccc1", "Potency": "inconclusive: 28.2 µM [inhibitor, single point]"}
{"smiles": "CCN1C(=O)S/C(=C/c2c(OCc3ccc(C(=O)O)cc3)ccc3ccccc23)C1=O", "Potency": "inconclusive: 28.2 µM [inhibitor, single point]"}
{"smiles": "CC(C)CN1CCN(Cc2ccc(CN3CCCCC3)s2)CC1CCO", "note": "(stereo not drawn)", "Potency": "inconclusive: 31.6 µM [inhibitor, single point]"}
{"smiles": "COC(=O)C(NC(C)=O)(Nc1nc2c(C)cc(C)cc2s1)C(F)(F)F", "note": "(stereo not drawn)", "Potency": "inconclusive: 10 µM [inhibitor, single point]"}
{"smiles": "Cn1cnnc1SCC(=O)Nc1ccc2nc(SCc3ccccc3F)sc2c1", "activity change, negative = inhibition": "inactive: -16%"}
{"smiles": "CCN1CCN(CCNC(=O)c2ccc(/C=C3/Sc4ccccc4N(Cc4cccc(Cl)c4)C3=O)cc2)CC1", "Potency": "inconclusive: 12.6 µM [inhibitor, single point]"}
{"smiles": "CC(C)CC(=O)NC(=S)N1CCCCCC1", "activity change, negative = inhibition": "inactive: -6.31%"}
{"smiles": "CC(C)CCNC(=S)Nc1ccc([N+](=O)[O-])cc1", "Potency": "inconclusive: 28.2 µM [inhibitor, single point]"}
{"smiles": "CN(C)CC(CCC(CN(C)C)C(O)(c1ccccc1)c1ccccc1)C(O)(c1ccccc1)c1ccccc1", "note": "(stereo not drawn)", "Potency": "inconclusive: 6.31 µM [inhibitor, partial curve, poor fit]"}
{"smiles": "Cc1n[nH]c(=S)n1/N=C/c1ccc(-c2ccccc2[N+](=O)[O-])o1", "Potency": "inconclusive: 28.2 µM [inhibitor, single point]"}
{"smiles": "Cc1cccc(CN2CCCC(C(=O)Nc3ccc(-c4cscn4)cc3)C2)c1", "note": "(stereo not drawn)", "Potency": "inconclusive: 12.6 µM [inhibitor, partial curve, poor fit]"}
{"smiles": "CC(C)=CCc1c(O)cc(O)c2c(=O)c(O[C@@H]3O[C@@H](C)[C@H](O)[C@@H](O)[C@H]3O)c(-c3ccc(O)cc3)oc12", "Potency": "inconclusive: 28.2 µM [inhibitor, single point]"}
{"smiles": "CCOC(=O)c1cnc2c(ccc3ccccc32)c1Nc1ccc(OC)c(OC)c1", "Potency": "inconclusive: 5.01 µM [inhibitor, partial curve, poor fit]"}
{"smiles": "N=C1c2ccccc2CN1NC(=O)CC12CC3CC(CC(C3)C1)C2", "Potency": "inconclusive: 28.2 µM [inhibitor, single point]"}
{"smiles": "Cc1[nH]c2ccccc2c(=O)c1C(=O)/C=C/c1ccccc1", "Potency": "inconclusive: 17.8 µM [inhibitor, partial curve, poor fit]"}
{"smiles": "CCCCN(CC)CCCNC(=S)Nc1ccc2nc(N3CCN(C)CC3)cc(C)c2c1", "Potency": "inconclusive: 0.501 µM [inhibitor, full curve, poor fit]"}
